Counter-ions that a name gives are not always drawn. Like-named read-outs stand apart in the source and are kept apart here.
Test system: CCRF-CEM/VBL100
Assay: cells
Description: FIG. 1 is a table of IC50 values of epothilones against CCRF-CEM, CCRF-CEM/VBL, and CCRF-CEM/Taxol cell growth. Cell growth inhibition was measured by XTT tetrazonium assay after 72-hour incubation for cell growth, as described previously (Scudiero et al. Cancer Res. 46:4827-4833, 1988; incorporated herein by reference). IC50 values were determined from dose-effect relationship at six or seven concentrations of each drug, by using a computer program (Chou et al. Adv. Enzyme Regul. 22:27-55, 1984; Chou et al. CalcuSyn for Windows (Biosoft, Cambridge, UK), 1997; each of which is incorporated herein by reference) as described earlier (Chou et al. Proc. Natl. Acad. Sci. USA 95:15798-15802, 1998; incorporated herein by reference).
A typical experiment involves culturing cells (e.g., CCRF-CEM) at an initial density of 2-5×10^4 cells per ml. […] For both methods, the absorbance of each well is measured with a microplate reader (EL-340, Bio-Tek, Burlington, Vt.). Each run entails six or seven concentrations of the tested drugs. Dose-effect relationship data are analyzed with the median-effect plot.

[1] = Homo sapiens, CCRF-CEM, 72 h, read-out: IC50 (μM), CCRF-CEM/VBL100
[2] = Homo sapiens, CCRF-CEM, 72 h, read-out: IC50, C/VBL100 (μM)
[3] = CCRF-CEM/VBL and CCRF-CEM/Taxol sublines (FIG. 94)
[4] = Homo sapiens, CCRF-CEM, 72 h, read-out: IC50, CCRF-CEM/VBL
[5] = read-out: CCRF-CEM/VBL (IC50 (μM)), XTT assay following 72 h inhibition, Table 1-1

C/C(=C\c1csc(C)n1)[C@@H]1C/C=C(/C(F)(F)F)C/C=C/[C@H](C)[C@H](O)[C@@H](C)C(=O)C(C)(C)[C@@H](O)CC(=O)O1 [Compound 29, 26-trifluoro-trans-9,10-dehydro-12,13-desoxyepothilone B]
Cross-resistance to vinblastine and paclitaxel: not appreciably cross-resistant
IC50 [1]: 0.021 µM
IC50 [2]: 0.021 µM

CC1=C/C[C@@H](/C(C)=C/c2csc(C)n2)OC(=O)C[C@H](O)C(C)(C)C(=O)[C@H](C)[C@@H](O)[C@@H](C)C\C=C\1 [Compound 6, epothilone 490, reference compound]
IC50 (Homo sapiens, CCRF-CEM, 72 h, read-out: CCRF-CEM/VBL (IC50 (μM))): 0.068 µM

C/C(=C\c1csc(C)n1)[C@@H]1C[C@@H]2O[C@]2(C)C/C=C/[C@H](C)[C@H](O)[C@@H](C)C(=O)C(C)(C)[C@@H](O)CC(=O)O1 [Compound 49, (E)-9,10-dehydroepothilone B]
Cross-resistance to vinblastine and paclitaxel [3]: not appreciably cross-resistant
IC50 [4]: 0.00032 µM

C/C(=C\c1csc(C)n1)[C@@H]1C[C@H]2O[C@@]2(C)CCC[C@H](C)[C@H](O)[C@@H](C)C(=O)C(C)(C)[C@@H](O)CC(=O)O1 [Compound 52]
IC50 [4]: 0.452 µM

[17]ddEpoB [Compound 23, reference compound]
IC50 [5]: 0.126 µM

C/C(=C\c1csc(C)n1)[C@@H]1C[C@H]2O[C@@]2(C)C/C=C/[C@H](C)[C@H](O)[C@@H](C)C(=O)C(C)(C)[C@@H](O)CC(=O)O1 [Compound 50]
IC50 [4]: 0.0959 µM

C/C1=C/C[C@@H](/C(C)=C/c2csc(CO)n2)OC(=O)C[C@H](O)C(C)(C)C(=O)[C@H](C)[C@@H](O)[C@@H](C)/C=C/C1 [Compound 57, 9,10-dehydro-dEpoF]
IC50 [1]: 0.0106 µM

C/C(=C\c1csc(C)n1)[C@@H]1C[C@@H]2O[C@]2(C)CCC[C@H](C)[C@H](O)[C@@H](C)C(=O)C(C)(C)[C@@H](O)CC(=O)O1 [Compound 51, Epothilone B, reference compound]
IC50 [4]: 0.0037 µM

C/C(=C\c1csc(C)n1)[C@@H]1C[C@@H]2O[C@]2(C)CCC[C@H](C)[C@H](O)[C@@H](C)C(=O)C(C)(C)[C@@H](O)CC(=O)N1 [Compound 15-aza-EpoB, reference compound]
Cross-resistance to vinblastine and paclitaxel [3]: considerable cross-resistance

C/C1=C/C[C@@H](/C(C)=C/c2csc(CO)n2)OC(=O)C[C@H](O)C(C)(C)C(=O)[C@H](C)[C@@H](O)[C@@H](C)CCC1 [dEpoF, reference compound]
Cross-resistance to vinblastine and paclitaxel [3]: some cross-resistance with vinblastine but not paclitaxel

C/C1=C/C[C@@H](/C(C)=C/c2csc(C)n2)OC(=O)C[C@H](O)C(C)(C)C(=O)[C@H](C)[C@@H](O)[C@@H](C)/C=C/C1 [Compound 28, trans-9,10-dehydro-12,13-desoxyepothilone B]
Cross-resistance to vinblastine and paclitaxel [3]: not appreciably cross-resistant
IC50 [1]: 0.0065 µM
IC50 [2]: 0.0042 µM
IC50 [4]: 0.0042 µM

C/C(=C\c1csc(C)n1)[C@@H]1C/C=C(/C(F)(F)F)CCC[C@H](C)[C@H](O)[C@@H](C)C(=O)C(C)(C)[C@@H](O)CC(=O)O1 [Compound 2, 26-trifluoro-12,13-desoxyepothilone B]
IC50 [2]: 0.08 µM

CC[C@]1(O)C[C@@H]2CN(CCc3c([nH]c4ccccc34)[C@@](C(=O)OC)(c3cc4c(cc3OC)N(C)[C@H]3[C@@](O)(C(=O)OC)[C@H](OC(C)=O)[C@]5(CC)C=CCN6CC[C@]43[C@@H]65)C2)C1 [vinblastine, vinblastine sulfate, reference compound]
Resistance of CCRF-CEM/VBL100 subline: 720 fold

C/C(=C\c1csc(C)n1)[C@@H]1C/C=C(/C(F)(F)F)C/C=C/C[C@H](C)[C@H](O)[C@@H](C)C(=O)C(C)(C)[C@@H](O)CC(=O)O1 [Compound 19, 27-F3-[17]ddEpoB]
IC50 [5]: 0.191 µM

C/C1=C/CC(/C(C)=C/c2csc(C)n2)OC(=O)C[C@H](O)C(C)(C)C(=O)[C@H](C)[C@@H](O)[C@@H](C)CCC1 (some centres unmarked) [Compound 1, 12,13-desoxyepothilone B, reference compound]
IC50 [1]: 0.014 µM
IC50 [2]: 0.016 µM
IC50 [4]: 0.016 µM

From patent US7875638B2, “Synthesis of epothilones, intermediates thereto, analogues and uses thereof” (Sloan-Kettering Institute for Cancer Research, priority 2002, dated 2011)
